# Laboratory results published in the supplement of paper PMC6531468.
# This is one part of the list. Read counts after selection give these values, which scatter widely. Scores sum up all selected molecules that hold the word; the word was not tested alone.
# Tested on: IMP3 KH1-2
# Test: 6-mer SELEX enrichment z-score vs GST control; IMP3 is the RNA-binding protein IGF2BP3; higher = more enriched by binding
# Details: construct: KH1-2 (164-376); SELEX round: R4
# Description: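 SELEX-seq with GST-tagged IMP3 KH1-2 (Pro164-Phe376) and an N40 RNA pool, round 4 (stringent 300/600 mM KCl washes). 6-mer z-score of sequence-tag enrichment normalised to the corresponding GST SELEX round; RNA k-mers written as DNA (T for U).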
# IMP3 KH1-2, sequence (chain, as listed by the source): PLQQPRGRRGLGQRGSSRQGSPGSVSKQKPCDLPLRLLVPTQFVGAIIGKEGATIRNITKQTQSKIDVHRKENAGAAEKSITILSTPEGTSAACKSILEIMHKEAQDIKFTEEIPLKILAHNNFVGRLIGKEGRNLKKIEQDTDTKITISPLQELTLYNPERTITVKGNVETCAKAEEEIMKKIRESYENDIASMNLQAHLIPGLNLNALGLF
row,Sequence,6-mer SELEX enrichment z-score
1,GCCATG,0.14
2,CTTACC,-0.721
3,TGTGGA,0.11
4,ACCCCC,0.499
5,TTTGAT,0.496
6,GACTCT,-0.41
7,TTTCCG,0.616
8,ACTGTC,0.127
9,CCAAGT,-0.748
10,GATGTC,-0.234
11,AAGGTG,-0.034
12,GAACGT,-1.97
13,CTACAT,1.46
14,CTTCCC,-0.345
15,TATCAA,0.645
16,CGCCAC,0.403
17,GGTGCG,0.258
18,GCACTT,0.311
19,TTTCAT,1.54
20,GTAGAG,-0.427

row,Sequence,6-mer SELEX enrichment z-score
1,CGTCTG,-0.315
2,TGACCC,-1.14
3,AGGCTG,0.259
4,CACTGG,0.093
5,GGACCC,-0.976
6,TAGTAT,0.151
7,CCCCCT,0.467
8,TAATGT,0.399
9,CGAGTA,-1.15
10,TACTGT,0.424
11,GTTCTC,-0.128
12,CAGCAT,0.371
13,TAAGGT,0.083
14,GTATTC,-0.28
15,CTAACT,0.344
16,GGGGAT,0.992
17,ATTACT,1.04
18,GTTGCG,-0.419
19,GATATT,0.796
20,TAATCT,0.41
